Assay [1] has as its system T. b. brucei Lister S427 (a drug-sensitive wild type). The assay is described as follows: Resazurin-based (Alamar blue) drug sensitivity assay. As to conditions: for T.b. brucei Selectivity Indices (SI, IC50 (μM)/IC50 (μM)) Group / T.b. brucei Selectivity Index (SI, IC50 (μM)/IC50 (μM)), numeric value: cytotoxicity against HEK293 cells vs T.b. brucei; for pIC50: Trypanosoma brucei, read-out: IC50 T.b. brucei. For orientation: Resazurin is reduced to fluorescent resorufin, in cell work by metabolically active cells.

In assay [2] the test system is T. congolense IL3000 (a drug sensitive wild type). Described as above. As to conditions: Trypanosoma congolense, read-out: IC50 T. congo. The method, then: A detailed description of the procedure for evaluating activity against trypanosomes, using an Alamar Blue (resazurin) assay, is described below.
The BSF T. congolense IL3000 and a clonal line, 6C3, adapted from IL3000 in vitro with diminazene aceturate (Merck), leading to a ˜10-fold resistance, were cultured in TCBSF3 medium without red blood cells (see Zheoat, A. M. et al., 2021, Pathogens (Basel, Switzerland), 10(2), 175). Dulbecco's minimum essential medium (MEM) was supplemented with 25 mM (4-(2-hydroxyethyl)-1-piperazineethanesulfonic acid) (HEPES), 26 mM NaHCO3, 5.6 mM Dd-glucose, 1 mM sodium pyruvate, 40 μM adenosine, 100 μM hypoxanthine, 16.5 μM thymidine, and 25 μM bathocuproinedisulfonic acid disodium salt. To this basal medium were added β-mercaptoethanol (0.0014% v/v), 1.6 mM glutamine, 100 units/mL penicillin/0.1 mg/mL streptomycin (Gibco), 20% goat serum (Gibco), and 5% Serum Plus (SAFC Bi-osciences) (see Coustou, V. et al., 2010, PLoS Negl. Trop. Dis., 4, e618 and Giordani, F. et al., J. Med. Chem., 2019, 62, 3021-3035). The BSF T. congolense IL3000 WT and its derived line, 6C3, were cultured at 34° C. in a humidified, 5% CO2 environment.
A resazurin-based (Alamar blue) drug sensitivity assay was used to assess and compare the activity of standard trypanocides in the different cell lines investigated (see Gould, M. K. et al., Anal. Biochem., 2008, 382, 87-93). Briefly, 23 doubling dilutions of the test compound of the invention, starting at 100 μM, and a compound-free control were prepared in 100 μL medium in a 96-well white plate (Greiner Bio-one, Frickenhausen, Germany). The cells were adjusted to 2×10^4 cells/mL for T. b. brucei and T. equiperdum; 4×10^4 cells/mL for T. evansi; and 5×10^5 cells/mL for T. congolense in the appropriate medium. 100 μL of the adjusted cells was then added to the wells containing drug dilutions and incubated for 48 h under respective culture condition. Thereafter, 20 μL of 125 mg/mL resazurin sodium dye was added, and the plate was incubated for a further 24 h. The resorufin fluorescence in each well of the plate was determined and used to calculate the Half maximal effective concentration (EC50) of the drug, as described in Carruthers, L. V. et al., Mol. Microbiol., 2021, 116, 564-588.

Structures are written as SMILES. pIC50: −log10 of the molar value.

The pIC50 is the negative decadic logarithm of the IC50, by convention in mol/L. On to `Cn1cc(NC(=O)c2ccc(/C=C/c3cnc4ccccc4c3)cc2)cc1C(=O)Nc1cc(C(=O)N2CCCCCC2)n(C)c1` [IVb3, (E)-N-(5-(azepane-1-carbonyl)-1-methyl-1H-pyrrol-3-yl)-1-methyl-4-(4-(2-(quinolin-3-yl)vinyl)benzamido)-1H-pyrrole-2-carboxamide], for which the “T.b. brucei Selectivity Indices (SI, IC50 (μM)/IC50 (μM)) Group” value (“T.b. brucei Selectivity Indices” for short) in assay [1] (Amides) is “D (Group D: SI > 3)”. For the same compound, in assay [1], the pIC50 is 6.00 to 6.60 and the “T.b. brucei Selectivity Index (SI, IC50 (μM)/IC50 (μM)), numeric value” (shortened to “T.b. brucei Selectivity Index”) came out at 6. For the same compound, the pIC50 in assay [2] was < 6.00.

Regarding `CCCCCCCC[N+](C)(C)CCNC(=O)c1cc(NC(=O)c2cc(NC(=O)c3ccc(/C=C/c4cnc5ccccc5c4)cc3)cn2C)cn1C` [Ic7, (E)-N,N-dimethyl-N-(2-(1-methyl-4-(1-methyl-4-(4-(2-(quinolin-3-yl)vinyl)benzamido)-1H-pyrrole-2-carboxamido)-1H-pyrrole-2-carboxamido)ethyl)octan-1-aminium], the “T.b. brucei Selectivity Indices” value in assay [1] (Quaternary ammoniums) is recorded as “D (Group D: SI > 120)”. Moreover, the pIC50 in assay [1] and in assay [2] was > 7.30 throughout. Moreover, in assay [1], the “T.b. brucei Selectivity Index” value is recorded as 247.

As for `CN1CCN(C(=N)CCNC(=O)c2cc(NC(=O)c3cc(NC(=O)c4ccc(/C=C/c5cnc6ccccc6c5)cc4)cn3C)cn2C)CC1` [Ib3, (E)-N-(3-imino-3-(4-methylpiperazin-1-yl)propyl)-1-methyl-4-(1-methyl-4-(4-(2-(quinolin-3-yl)vinyl)benzamido)-1H-pyrrole-2-carboxamido)-1H-pyrrole-2-carboxamide], the negative logarithm of the IC50 (pIC50) in assay [1] is 6.60 to 7.30; in assay [2], 6.00 to 6.60.

Turning to `CONC(=N)CCNC(=O)c1cc(NC(=O)c2cc(NC(=O)c3ccc(/C=C/c4cnc5ccccc5c4)cc3)cn2C)cn1C` [Ia28, (E)-N-(3-imino-3-(methoxyamino)propyl)-1-methyl-4-(1-methyl-4-(4-(2-(quinolin-3-yl)vinyl)benzamido)-1H-pyrrole-2-carboxamido)-1H-pyrrole-2-carboxamide], the pIC50 in assay [1] is > 7.30; in assay [2] it was 6.00 to 6.60.

As to `CCCCCCCCC[N+](C)(C)CCNC(=O)c1cc(NC(=O)c2cc(NC(=O)c3ccc(/C=C/c4cnc5ccccc5c4)cc3)cn2C)cn1C` [Ic8, (E)-N,N-dimethyl-N-(2-(1-methyl-4-(1-methyl-4-(4-(2-(quinolin-3-yl)vinyl)benzamido)-1H-pyrrole-2-carboxamido)-1H-pyrrole-2-carboxamido)ethyl)nonan-1-aminium], the “T.b. brucei Selectivity Indices” value in assay [1] (Quaternary ammoniums) is given as “D (Group D: SI > 120)”. For the same compound, the pIC50 in assay [1] and in assay [2] was > 7.30 in each case.

For the compound `CCCCCCC/N=C(\CCNC(=O)c1cc(NC(=O)c2cc(NC(=O)c3ccc(/C=C/c4ccc(N(C)C)cc4)nc3)cn2C)cn1C)NCCCCCCC` [Ia33, 6-((E)-4-(dimethylamino)styryl)-N-(5-((5-(((E)-3-(heptylamino)-3-(heptylimino)propyl)carbamoyl)-1-methyl-1H-pyrrol-3-yl)carbamoyl)-1-methyl-1H-pyrrol-3-yl)nicotinamide], the pIC50 in assay [1] and in assay [2] was < 6.00 throughout.

For `CC(C)NC(=O)c1cc(NC(=O)c2cc(NC(=O)c3ccc(/C=C/c4cnc5ccccc5c4)cc3)cn2C)cn1C` [IVa4, (E)-N-isopropyl-1-methyl-4-(1-methyl-4-(4-(2-(quinolin-3-yl)vinyl)benzamido)-1H-pyrrole-2-carboxamido)-1H-pyrrole-2-carboxamide], in assay [1] (Amides), the “T.b. brucei Selectivity Indices” value is on record as “B (Group B: 0.7 < SI <= 1.5)”. Also, the pIC50 in assay [1] and in assay [2] was 6.00 to 6.60 throughout.

Consider `C/N=C(/CCNC(=O)c1cc(NC(=O)c2cc(NC(=O)c3ccc(/C=C/c4ccc5ccccc5c4)cc3)cn2C)cn1C)NC` [Ia7, 1-methyl-4-(1-methyl-4-(4-((E)-2-(naphthalen-2-yl)vinyl)benzamido)-1H-pyrrole-2-carboxamido)-N—((Z)-3-(methylamino)-3-(methylimino)propyl)-1H-pyrrole-2-carboxamide], for which the negative-log IC50 (pIC50) in assay [1] is 6.00 to 6.60; in assay [2] it was > 7.30.

As for `CCCC/N=C(\CCNC(=O)c1cc(NC(=O)c2cc(NC(=O)c3ccc(/C=C/c4cnc5ccccc5c4)cc3)cn2C)cn1C)NCCCC` [Ia38, N—((E)-3-(butylamino)-3-(butylimino)propyl)-1-methyl-4-(1-methyl-4-(4-((E)-2-(quinolin-3-yl)vinyl)benzamido)-1H-pyrrole-2-carboxamido)-1H-pyrrole-2-carboxamide], the pIC50 in assay [1] and in assay [2] was 6.60 to 7.30 in each case.

Regarding `CC(C)/N=C(\N)CCNC(=O)c1cc(NC(=O)c2cc(NC(=O)c3ccc(/C=C/c4ccc5nonc5c4)cc3)cn2C)cn1C` [Ia13, N—((Z)-3-amino-3-(isopropylimino)propyl)-4-(4-(4-((E)-2-(benzo[c][1,2,5]oxadiazol-5-yl)vinyl)benzamido)-1-methyl-1H-pyrrole-2-carboxamido)-1-methyl-1H-pyrrole-2-carboxamide], the “T.b. brucei Selectivity Indices” value in assay [1] (Alkyl Amidines and NH Pyrroles) was “D (Group D: SI > 300)”. For the same compound, the pIC50 in assay [1] and in assay [2] was > 7.30 each time. In addition, the “T.b. brucei Selectivity Index” value in assay [1] was found to be 922.

For the compound `COc1cccc(/C=C/c2ccc(C(=O)Nc3cc(C(=O)Nc4cc(C(=O)NCCC(=N)NC(C)C)n(C)c4)n(C)c3)cn2)c1` [Ia23, (E)-N-(5-((5-((3-imino-3-(isopropylamino)propyl)carbamoyl)-1-methyl-1H-pyrrol-3-yl)carbamoyl)-1-methyl-1H-pyrrol-3-yl)-6-(3-methoxystyryl)nicotinamide], the pIC50 in assay [1] and in assay [2] was < 6.00 in each case.

For the compound `CC/N=C(\N)CCNC(=O)c1cc(NC(=O)c2cc(NC(=O)c3ccc(/C=C/c4ccc5nonc5c4)cc3)cn2C)cn1C` [Ia12, N—((Z)-3-amino-3-(ethylimino)propyl)-4-(4-(4-((E)-2-(benzo[c][1,2,5]oxadiazol-5-yl)vinyl)benzamido)-1-methyl-1H-pyrrole-2-carboxamido)-1-methyl-1H-pyrrole-2-carboxamide], the “T.b. brucei Selectivity Indices” value in assay [1] (Alkyl Amidines and NH Pyrroles) is “D (Group D: SI > 300)”. In addition, in assay [1], the pIC50 was > 7.30 and the “T.b. brucei Selectivity Index” value amounted to 730. Further, the pIC50 in assay [2] was < 6.00.

Consider `CCNC(=O)c1cc(NC(=O)c2cc(NC(=O)c3ccc(/C=C/c4cnc5ccccc5c4)cc3)cn2C)cn1C` [IVa6, (E)-N-ethyl-1-methyl-4-(1-methyl-4-(4-(2-(quinolin-3-yl)vinyl)benzamido)-1H-pyrrole-2-carboxamido)-1H-pyrrole-2-carboxamide], for which the “T.b. brucei Selectivity Indices” value in assay [1] (Amides) is recorded as “C (Group C: 1.5 < SI <= 3)”. Also, the pIC50 in assay [1] and in assay [2] was 6.00 to 6.60 each time.

For `[H]/N=C(\CCNC(=O)c1cc(NC(=O)c2cc(NC(=O)c3ccc(C=Cc4ccc(C#N)cc4)cc3)cn2C)cn1C)NC(C)C` [Ia17, (E)-4-(4-(4-cyanostyryl)benzamido)-N-(5-((3-imino-3-(isopropylamino)propyl)carbamoyl)-1-methyl-1H-pyrrol-3-yl)-1-methyl-1H-pyrrole-2-carboxamide], the pIC50 in assay [1] and in assay [2] was 6.00 to 6.60 throughout.

Consider `COCCOCCOCCNC(=O)c1cc(NC(=O)c2cc(NC(=O)c3ccc(/C=C/c4cnc5ccccc5c4)cc3)cn2C)cn1C` [IVa8, (E)-N-(2-(2-(2-methoxyethoxy)ethoxy)ethyl)-1-methyl-4-(1-methyl-4-(4-(2-(quinolin-3-yl)vinyl)benzamido)-1H-pyrrole-2-carboxamido)-1H-pyrrole-2-carboxamide], for which the “T.b. brucei Selectivity Indices” value in assay [1] (Amides) is “D (Group D: SI > 3)”. Also, the pIC50 in assay [1] and in assay [2] was < 6.00 throughout.

As to `CNC(=N)CCNC(=O)c1cc(NC(=O)c2cc(NC(=O)c3ccc(/C=C/c4ccc5ccccc5c4)cc3)cn2C)cn1C` [Ia4, (E)-N-(3-imino-3-(methylamino)propyl)-1-methyl-4-(1-methyl-4-(4-(2-(naphthalen-2-yl)vinyl)benzamido)-1H-pyrrole-2-carboxamido)-1H-pyrrole-2-carboxamide], the pIC50 is < 6.00 in assay [1] and 6.60 to 7.30 in assay [2].

(Values after US20250313546A1, “NUCLEIC ACID BINDERS” (UNIVERSITY OF STRATHCLYDE, priority 2022, published 2025).)
